# Data taken from the supplement of paper PMC8728848.
# The list shows a part of the results.
# B1: EPL1 (Trichoderma atroviride), A0PCX2 (protein)
# chain: MQLSNLFKLALFTAAVSADTVSYDTGYDDASRSLTVVSCSDGTNGLITRYHWQTQGQIPRFPYIGGAQAVAGWNSPNCGTCWKLTYSGKTIYVLAIDHTAAGFNIGLDAMNALTNGNAVALGRVSATASQVAVSNCGL
# Key:
# Assay in all cases: glycan array binding signal (z-score within array); higher = stronger binding
# Conditions in all cases: glycan notation: IUPAC condensed, linker removed
# [1] = target: Fuc(a1-2)Gal
# In short: (§1)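 From the Consortium for Functional Glycomics database, 3228 arrays were curated, keeping only those whose protein sequence was available. Binding is given as a within-array Z-score averaged across arrays sharing a protein sequence and across linkers. Negative Z-scores can be read as non-binding.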
# [2] = target: Fuc(a1-2)Gal(b1-3)GalNAc
# In short: as §1
# [3] = target: Fuc(a1-2)Gal(b1-3)GalNAc(a1-3)[Fuc(a1-2)]Gal(b1-4)Glc
# In short: as §1
# [4] = target: Fuc(a1-2)Gal(b1-3)GalNAc(a1-3)[Fuc(a1-2)]Gal(b1-4)GlcNAc
# In short: as §1
# [5] = target: Fuc(a1-2)Gal(b1-3)GalNAc(b1-3)Gal
# In short: as §1
# [6] = target: Fuc(a1-2)Gal(b1-3)GalNAc(b1-3)Gal(a1-4)Gal(b1-4)Glc
# In short: as §1
# [7] = target: Fuc(a1-2)Gal(b1-3)GalNAc(b1-4)[Neu5Ac(a2-3)]Gal(b1-4)Glc
# In short: as §1
# [8] = target: Fuc(a1-2)Gal(b1-3)GlcNAc
# In short: as §1
# [9] = target: Fuc(a1-2)Gal(b1-3)GlcNAc(b1-2)Man(a1-3)[Fuc(a1-2)Gal(b1-3)GlcNAc(b1-2)Man(a1-6)]Man(b1-4)GlcNAc(b1-4)GlcNAc
# In short: as §1
# [10] = target: Fuc(a1-2)Gal(b1-3)GlcNAc(b1-2)Man(a1-3)[Fuc(a1-2)Gal(b1-3)GlcNAc(b1-2)Man(a1-6)]Man(b1-4)GlcNAc(b1-4)[Fuc(a1-6)]GlcNAc
# In short: as §1
# [11] = target: Fuc(a1-2)Gal(b1-3)GlcNAc(b1-3)Gal(b1-4)Glc
# In short: as §1
# [12] = target: Fuc(a1-2)Gal(b1-3)GlcNAc(b1-3)GalNAc
# In short: as §1
# [13] = target: Fuc(a1-2)Gal(b1-3)GlcNAc(b1-3)[Fuc(a1-2)Gal(b1-3)GlcNAc(b1-6)]GalNAc
# In short: as §1
# [14] = target: Fuc(a1-2)Gal(b1-3)GlcNAc(b1-3)[Gal(b1-4)GlcNAc(b1-6)]Gal(b1-4)Glc
# In short: as §1
# [15] = target: Fuc(a1-2)Gal(b1-3)GlcNAc(b1-3)[Neu5Ac(a2-6)Gal(b1-4)GlcNAc(b1-6)]Gal(b1-4)Glc
# In short: as §1
# [16] = target: Fuc(a1-2)Gal(b1-3)GlcNAc6S
# In short: as §1
# [17] = target: Fuc(a1-2)Gal(b1-3)[Fuc(a1-4)]GlcNAc
# In short: as §1
# [18] = target: Fuc(a1-2)Gal(b1-3)[Fuc(a1-4)]GlcNAc(b1-2)Man(a1-3)[Fuc(a1-2)Gal(b1-3)[Fuc(a1-4)]GlcNAc(b1-2)Man(a1-3)]Man(b1-4)GlcNAc(b1-4)GlcNAc
# In short: as §1
# [19] = target: Fuc(a1-2)Gal(b1-3)[Fuc(a1-4)]GlcNAc(b1-2)Man(a1-3)[Fuc(a1-2)Gal(b1-3)[Fuc(a1-4)]GlcNAc(b1-2)Man(a1-6)]Man(b1-4)GlcNAc(b1-4)[Fuc(a1-6)]GlcNAc(b1-4)[Fuc(a1-6)]GlcNAc
# In short: as §1
# [20] = target: Fuc(a1-2)Gal(b1-3)[Fuc(a1-4)]GlcNAc(b1-3)[Fuc(a1-3)[Gal(b1-4)]GlcNAc(b1-6)]Gal(b1-4)Glc
# In short: as §1
# [21] = target: Fuc(a1-2)Gal(b1-3)[Fuc(a1-4)]GlcNAc(b1-3)[Gal(b1-4)GlcNAc(b1-6)]Gal(b1-4)Glc
# In short: as §1
# [22] = target: Fuc(a1-2)Gal(b1-4)Fuc(a1-3)]GlcNAc(b1-2)Man(a1-3)[Fuc(a1-2)Gal(b1-4)[Fuc(a1-3)]GlcNAc(b1-2)Man(a1-6)]Man(b1-4)GlcNAc(b1-4)GlcNAc
# In short: as §1
# [23] = target: Fuc(a1-2)Gal(b1-4)Glc
# In short: as §1
# [24] = target: Fuc(a1-2)Gal(b1-4)Glc6S
# In short: as §1
# [25] = target: Fuc(a1-2)Gal(b1-4)GlcNAc
# In short: as §1
# [26] = target: Fuc(a1-2)Gal(b1-4)GlcNAc(b1-2)Man
# In short: as §1
# [27] = target: Fuc(a1-2)Gal(b1-4)GlcNAc(b1-2)Man(a1-3)[Fuc(a1-2)Gal(b1-4)GlcNAc(b1-2)Man(a1-6)]Man(b1-4)GlcNAc(b1-4)GlcNAc
# In short: as §1
# [28] = target: Fuc(a1-2)Gal(b1-4)GlcNAc(b1-2)Man(a1-3)[Fuc(a1-2)Gal(b1-4)GlcNAc(b1-2)Man(a1-6)]Man(b1-4)GlcNAc(b1-4)[Fuc(a1-6)]GlcNAc
# In short: as §1
# [29] = target: Fuc(a1-2)Gal(b1-4)GlcNAc(b1-2)[Fuc(a1-2)Gal(b1-4)GlcNAc(b1-4)]Man(a1-3)[Fuc(a1-2)Gal(b1-4)GlcNAc(b1-2)Man(a1-6)]Man(b1-4)GlcNAc(b1-4)GlcNAc
# In short: as §1
# [30] = target: Fuc(a1-2)Gal(b1-4)GlcNAc(b1-3)Gal(b1-4)GlcNAc
# In short: as §1
# [31] = target: Fuc(a1-2)Gal(b1-4)GlcNAc(b1-3)Gal(b1-4)GlcNAc(b1-2)Man(a1-3)[Fuc(a1-2)Gal(b1-4)GlcNAc(b1-3)Gal(b1-4)GlcNAc(b1-2)Man(a1-6)]Man(b1-4)GlcNAc(b1-4)GlcNAc
# In short: as §1
# [32] = target: Fuc(a1-2)Gal(b1-4)GlcNAc(b1-3)Gal(b1-4)GlcNAc(b1-3)Gal(b1-4)GlcNAc
# In short: as §1
# [33] = target: Fuc(a1-2)Gal(b1-4)GlcNAc(b1-3)GalNAc
# In short: as §1
# [34] = target: Fuc(a1-2)Gal(b1-4)GlcNAc(b1-3)[Fuc(a1-2)Gal(b1-4)GlcNAc(b1-6)]GalNAc
# In short: as §1
# [35] = target: Fuc(a1-2)Gal(b1-4)GlcNAc(b1-3)[Fuc(a1-3)[Gal(b1-4)]GlcNAc(b1-6)]Gal(b1-4)Glc
# In short: as §1
# [36] = target: Fuc(a1-2)Gal(b1-4)GlcNAc(b1-6)GalNAc
# In short: as §1
# [37] = target: Fuc(a1-2)Gal(b1-4)GlcNAc6S
# In short: as §1
# [38] = target: Fuc(a1-2)Gal(b1-4)[Fuc(a1-3)]GlcNAc
# In short: as §1
# [39] = target: Fuc(a1-2)Gal(b1-4)[Fuc(a1-3)]GlcNAc(b1-2)Man(a1-3)[Fuc(a1-2)Gal(b1-4)[Fuc(a1-3)]GlcNAc(b1-2)Man(a1-6)]Man(b1-4)GlcNAc(b1-4)[Fuc(a1-6)]GlcNAc
# In short: as §1
# [40] = target: Fuc(a1-2)Gal(b1-4)[Fuc(a1-3)]GlcNAc(b1-2)[Fuc(a1-2)Gal(b1-4)[Fuc(a1-3)]GlcNAc(b1-4)]Man(a1-3)[Fuc(a1-2)Gal(b1-4)[Fuc(a1-3)]GlcNAc(b1-2)Man(a1-6)]Man(b1-4)GlcNAc(b1-4)GlcNAc
# In short: as §1
# [41] = target: Fuc(a1-2)Gal(b1-4)[Fuc(a1-3)]GlcNAc(b1-3)Gal(b1-4)[Fuc(a1-3)]GlcNAc
# In short: as §1
# [42] = target: Fuc(a1-2)Gal(b1-4)[Fuc(a1-3)]GlcNAc(b1-3)Gal(b1-4)[Fuc(a1-3)]GlcNAc(b1-3)Gal(b1-4)[Fuc(a1-3)]GlcNAc
# In short: as §1
# [43] = target: Fuc(a1-2)Gal(b1-4)[Fuc(a1-3)]GlcNAc(b1-3)GalNAc
# In short: as §1
# [44] = target: Fuc(a1-2)Gal(b1-4)[Fuc(a1-3)]GlcNAc(b1-3)[Neu5Ac(a2-6)Gal(b1-4)GlcNAc(b1-6)]Gal(b1-4)Glc
# In short: as §1
# [45] = target: Fuc(a1-2)Gal3S(b1-4)GlcNAc
# In short: as §1
# [46] = target: Fuc(a1-2)Gal6S(b1-3)GlcNAc
# In short: as §1
# [47] = target: Fuc(a1-2)Gal6S(b1-3)GlcNAc6S
# In short: as §1
# [48] = target: Fuc(a1-2)Gal6S(b1-4)Glc
# In short: as §1
# [49] = target: Fuc(a1-2)Gal6S(b1-4)Glc6S
# In short: as §1
# [50] = target: Fuc(a1-2)[Gal(a1-3)]Gal
# In short: as §1
# [51] = target: Fuc(a1-2)[Gal(a1-3)]Gal(b1-3)GalNAc
# In short: as §1
# [52] = target: Fuc(a1-2)[Gal(a1-3)]Gal(b1-3)GalNAc(b1-3)Gal(a1-4)Gal(b1-4)Glc
# In short: as §1
# [53] = target: Fuc(a1-2)[Gal(a1-3)]Gal(b1-3)GlcNAc
# In short: as §1
# [54] = target: Fuc(a1-2)[Gal(a1-3)]Gal(b1-3)GlcNAc(b1-2)Man(a1-3)[Fuc(a1-2)[Gal(a1-3)]Gal(b1-3)GlcNAc(b1-2)Man(a1-6)]Man(b1-4)GlcNAc(b1-4)GlcNAc
# In short: as §1
# [55] = target: Fuc(a1-2)[Gal(a1-3)]Gal(b1-3)GlcNAc(b1-2)Man(a1-3)[Fuc(a1-2)[Gal(a1-3)]Gal(b1-3)GlcNAc(b1-2)Man(a1-6)]Man(b1-4)GlcNAc(b1-4)[Fuc(a1-6)]GlcNAc
# In short: as §1
# [56] = target: Fuc(a1-2)[Gal(a1-3)]Gal(b1-3)GlcNAc(b1-3)GalNAc
# In short: as §1
# [57] = target: Fuc(a1-2)[Gal(a1-3)]Gal(b1-3)GlcNAc(b1-6)GalNAc
# In short: as §1
# [58] = target: Fuc(a1-2)[Gal(a1-3)]Gal(b1-4)Glc
# In short: as §1
# [59] = target: Fuc(a1-2)[Gal(a1-3)]Gal(b1-4)GlcNAc
# In short: as §1
# [60] = target: Fuc(a1-2)[Gal(a1-3)]Gal(b1-4)GlcNAc(b1-2)Man
# In short: as §1
binder,measurement,setting,value
B1,glycan array binding signal (z-score),[1],-0.335
same,glycan array binding signal (z-score),[2],-0.087
same,glycan array binding signal (z-score),[3],-0.272
same,glycan array binding signal (z-score),[4],-0.075
same,glycan array binding signal (z-score),[5],-0.081
same,glycan array binding signal (z-score),[6],0.051
same,glycan array binding signal (z-score),[7],-0.195
same,glycan array binding signal (z-score),[8],-0.562
same,glycan array binding signal (z-score),[9],0.479
same,glycan array binding signal (z-score),[10],-0.023
same,glycan array binding signal (z-score),[11],-0.176
same,glycan array binding signal (z-score),[12],0.648
same,glycan array binding signal (z-score),[13],0.416
same,glycan array binding signal (z-score),[14],-0.353
same,glycan array binding signal (z-score),[15],0.304
same,glycan array binding signal (z-score),[16],-0.466
same,glycan array binding signal (z-score),[17],-0.419
same,glycan array binding signal (z-score),[18],0.341
same,glycan array binding signal (z-score),[19],-0.221
same,glycan array binding signal (z-score),[20],-0.315
same,glycan array binding signal (z-score),[21],0.251
same,glycan array binding signal (z-score),[22],0.27
same,glycan array binding signal (z-score),[23],-0.442
same,glycan array binding signal (z-score),[24],0.188
same,glycan array binding signal (z-score),[25],-0.506
same,glycan array binding signal (z-score),[26],-0.194
same,glycan array binding signal (z-score),[27],0.448
same,glycan array binding signal (z-score),[28],-0.21
same,glycan array binding signal (z-score),[29],-0.292
same,glycan array binding signal (z-score),[30],0.062
same,glycan array binding signal (z-score),[31],-0.05
same,glycan array binding signal (z-score),[32],-0.711
same,glycan array binding signal (z-score),[33],0.127
same,glycan array binding signal (z-score),[34],-0.049
same,glycan array binding signal (z-score),[35],-0.187
same,glycan array binding signal (z-score),[36],-0.394
same,glycan array binding signal (z-score),[37],0.319
same,glycan array binding signal (z-score),[38],0.212
same,glycan array binding signal (z-score),[39],0.097
same,glycan array binding signal (z-score),[40],-0.296
same,glycan array binding signal (z-score),[41],-0.072
same,glycan array binding signal (z-score),[42],0.232
same,glycan array binding signal (z-score),[43],0.385
same,glycan array binding signal (z-score),[44],0.037
same,glycan array binding signal (z-score),[45],0.62
same,glycan array binding signal (z-score),[46],-0.249
same,glycan array binding signal (z-score),[47],-0.166
same,glycan array binding signal (z-score),[48],-0.288
same,glycan array binding signal (z-score),[49],-0.303
same,glycan array binding signal (z-score),[50],0.001
same,glycan array binding signal (z-score),[51],0.754
same,glycan array binding signal (z-score),[52],-0.133
same,glycan array binding signal (z-score),[53],0.419
same,glycan array binding signal (z-score),[54],0.143
same,glycan array binding signal (z-score),[55],0.105
same,glycan array binding signal (z-score),[56],-0.099
same,glycan array binding signal (z-score),[57],-0.471
same,glycan array binding signal (z-score),[58],0.26
same,glycan array binding signal (z-score),[59],-0.234
same,glycan array binding signal (z-score),[60],-0.094
